These are yes or no findings as the source states them, for the method shown. Some results given as binding are weak or reduced against the parent protein; the word gives no strength.
Key:
[1] = biological target: T1, MOTS-c (mitochondrial open reading frame of the 12S ribosomal RNA type-c), wild type (human); experiment: far-Western, overlay or dot blot; MOTS-c (0-21.7 μg) dotted on nitrocellulose; CK2 complex 5 μg/mL in SuperBlock (PBS) flowed over, 30 min, room temperature; detected by CK2α and CK2β antibodies; both purified
T1 sequence (peptide): MRWQEMGYIFYPRKLR

Chains of the proteins cited; added tags and fusions are not shown. Lines headed by an entry give the natural chain unless they say otherwise; changes in a name come on top.
UniProt P68400: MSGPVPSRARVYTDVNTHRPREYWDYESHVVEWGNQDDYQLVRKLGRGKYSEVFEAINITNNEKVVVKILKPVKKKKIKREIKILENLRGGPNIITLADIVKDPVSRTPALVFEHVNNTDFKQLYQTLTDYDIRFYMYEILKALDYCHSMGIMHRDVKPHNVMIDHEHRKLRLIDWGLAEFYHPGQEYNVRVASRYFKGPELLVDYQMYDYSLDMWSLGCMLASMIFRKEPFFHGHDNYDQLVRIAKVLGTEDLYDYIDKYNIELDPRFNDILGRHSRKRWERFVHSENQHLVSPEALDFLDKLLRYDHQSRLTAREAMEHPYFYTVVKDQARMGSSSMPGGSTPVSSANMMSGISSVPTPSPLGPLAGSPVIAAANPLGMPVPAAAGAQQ
UniProt P67870: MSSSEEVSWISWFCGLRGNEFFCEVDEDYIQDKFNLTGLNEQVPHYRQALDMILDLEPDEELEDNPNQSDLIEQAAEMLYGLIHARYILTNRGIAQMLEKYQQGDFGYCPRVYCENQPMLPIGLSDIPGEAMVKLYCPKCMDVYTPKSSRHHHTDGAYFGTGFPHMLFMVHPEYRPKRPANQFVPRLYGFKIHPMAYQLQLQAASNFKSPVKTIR

[2] = biological target: T1, MOTS-c (mitochondrial open reading frame of the 12S ribosomal RNA type-c), wild type (human); experiment: SPR; Biacore T200; MOTS-c or K14Q MOTS-c (10 μg/mL, 10 mM sodium acetate pH 5.0) immobilised on CM5 chip (278 RU and 193 RU); first 70 nM CK2α or CK2β, then CK2α at 2.5, 5.0, 10 and 20 nM flowed at 30 μL/min in 0.01 M HEPES, 0.15 M NaCl, 0.3 mM EDTA, 0.05% tween; both purified

binding [1] | binding [2] | Substance
binds | – | CK2 complex (Casein Kinase II; contains both CK2α and CK2β subunits) (from UniProt P68400 1-391; P67870 1-215)
– | no binding (tested: 70 nM) | CK2β (recombinant, IBL) (from UniProt P67870 1-215)

From PMC11570452, “MOTS-c modulates skeletal muscle function by directly binding and activating CK2” (iScience, 2024)
